Measured values reported in the antibiotic and cytotoxicity screens of Wong et al. (2023).
This is one part of the list.

system: S. aureus RN4220; experiment: growth inhibition call (relative growth <= 0.2); conditions: 50 µM

Growth inhibition call, inactive:
O=C(NCCN1CCCC1)[C@H]1[C@H](CO)[C@H]2Cn3c(cccc3=O)[C@@H]1N2C(=O)c1ccccc1
COc1ccc(S(=O)(=O)N[C@H]2C=C[C@@H](CC(=O)NCCc3ccncc3)O[C@@H]2CO)cc1
C[C@@H]1CN([C@H](C)CO)C(=O)c2cc(NC(=O)Nc3ccc4c(c3)OCO4)ccc2O[C@H]1CN(C)C(=O)Nc1ccc(C(F)(F)F)cc1
C[C@H]1CN([C@@H](C)CO)S(=O)(=O)c2ccc(C#CC3CC3)cc2O[C@@H]1CN(C)C(=O)c1cccc(F)c1
COc1ccc(NC(=O)Nc2ccc3c(c2)C(=O)N([C@@H](C)CO)C[C@@H](C)[C@@H](CN(C)S(=O)(=O)c2ccc(Cl)cc2)OCCCC[C@@H](C)O3)cc1
C[C@@H]1CN([C@@H](C)CO)C(=O)c2cccc(NS(=O)(=O)c3cn(C)cn3)c2O[C@@H]1CN(C)Cc1ccccc1
Cc1ccc(S(=O)(=O)N(C)C[C@H]2Oc3ncc(-c4ccncc4)cc3C(=O)N([C@H](C)CO)C[C@H]2C)cc1
Cc1noc(C)c1S(=O)(=O)Nc1ccc2c(c1)CC(=O)N([C@@H](C)CO)C[C@@H](C)[C@@H](CN(C)S(=O)(=O)c1cn(C)cn1)O2
COc1ccc2cc(C(C)C(=O)O)ccc2c1 (stereo not given)
Cc1ccc(S(=O)(=O)Nc2ccc3c(c2)C(=O)N([C@@H](C)CO)C[C@@H](C)[C@H](CN(C)Cc2ccncc2)OCCCC[C@H](C)O3)cc1
C[C@H]1CCCCO[C@@H](CN(C)C(=O)Nc2ccc(C(F)(F)F)cc2)[C@@H](C)CN([C@@H](C)CO)C(=O)c2cc(NC(=O)Nc3ccc4c(c3)OCO4)ccc2O1
Cc1ccc(S(=O)(=O)N(C)C[C@@H]2Oc3ccc(NC(=O)c4ccncc4)cc3C(=O)N([C@@H](C)CO)C[C@H]2C)cc1
Cc1noc(C)c1NC(=O)Nc1cccc2c1O[C@H](CN(C)S(=O)(=O)c1cn(C)cn1)[C@@H](C)CN([C@H](C)CO)C2=O
C[C@H](CO)N1C[C@H](C)[C@H](CN(C)C(=O)Cc2cccnc2)Oc2cc(C#Cc3ccccc3F)ccc2S1(=O)=O
C[C@@H]1CN([C@H](C)CO)C(=O)Cc2cc(NC(=O)CCC(F)(F)F)ccc2O[C@H]1CN(C)Cc1ccc(C(F)(F)F)cc1
COCC#Cc1ccc2c(c1)O[C@H](CN(C)C(=O)C1CCCCC1)[C@H](C)CN([C@@H](C)CO)S2(=O)=O
COc1ccc(S(=O)(=O)N(C)C[C@@H]2Oc3c(cccc3N(C)C)C(=O)N([C@@H](C)CO)C[C@@H]2C)cc1
C[C@H]1CN([C@@H](C)CO)C(=O)Cc2cc(NC(=O)Nc3ccc(C(F)(F)F)cc3)ccc2O[C@H]1CN(C)C(=O)Nc1ccc(C(F)(F)F)cc1
C[C@@H]1CN([C@H](C)CO)C(=O)Cc2cc(NC(=O)C3CC3)ccc2O[C@@H]1CN(C)S(=O)(=O)c1ccc(F)cc1
COCC(=O)Nc1ccc2c(c1)C(=O)N(C)C[C@H](OC)[C@H](C)CN(C(=O)Cc1cccnc1)[C@H](C)CO2
C[C@H]1CN([C@@H](C)CO)C(=O)c2c(c3ccccc3n2C)-c2ccccc2CO[C@@H]1CN(C)Cc1ccccc1C(F)(F)F
CC(C)NC(=O)N[C@H]1C=C[C@@H](CC(=O)NCCCN(C)C)O[C@@H]1CO
O=C(C[C@@H]1CC[C@H]2[C@@H](COC[C@H](O)CN2C(=O)Nc2cc(Cl)cc(Cl)c2)O1)N1CCOCC1
C[C@@H]1CN([C@H](C)CO)C(=O)Cc2cc(NC(=O)Nc3ccc(F)cc3)ccc2O[C@@H]1CN(C)CC1CCCCC1
C[C@@H]1CN([C@H](C)CO)C(=O)c2cc(NC(=O)NC3CCCCC3)ccc2O[C@@H](C)CCCCO[C@@H]1CN(C)C(=O)Cc1ccccc1
C[C@H]1CN([C@@H](C)CO)C(=O)c2cccc(NC(=O)c3ccncc3)c2O[C@H]1CN(C)S(=O)(=O)c1cn(C)cn1
c1ccc(Cc2nn[nH]n2)cc1
C[C@H]1CN([C@@H](C)CO)S(=O)(=O)c2ccc(Br)cc2O[C@H]1CN(C)C(=O)c1ccccc1F
C[C@H](CO)N1C[C@H](C)[C@@H](CN(C)C(=O)Nc2ccccc2)Oc2c(NC(=O)Nc3cccc4ccccc34)cccc2C1=O
C[C@@H]1CN([C@H](C)CO)C(=O)c2cc(NC(=O)Cn3cnnn3)ccc2O[C@H]1CN(C)C(=O)Nc1ccc(F)cc1
Cc1noc(C)c1S(=O)(=O)Nc1ccc2c(c1)C(=O)N([C@H](C)CO)C[C@H](C)[C@H](CN(C)Cc1ccccc1)OCCCC[C@H](C)O2
COCCNC(=O)C[C@@H]1CC[C@@H]2[C@H](COC[C@H](O)CN2C(=O)Nc2ccc3c(c2)OCO3)O1
C[C@H](CO)N1C[C@H](C)[C@@H](CN(C)S(=O)(=O)c2ccc(F)cc2)Oc2c(NC(=O)Nc3cccc4ccccc34)cccc2C1=O
COc1ccc2c3c([nH]c2c1)[C@@H](CO)N(C[C@]13CCN(CC1)CC1CCCC1)S(=O)(=O)c1cn(cn1)C
C[C@@H]1CCCCO[C@H](CN(C)C(=O)c2ccccc2)[C@H](C)CN([C@@H](C)CO)C(=O)c2cc(NC(=O)Nc3ccc(F)cc3)ccc2O1
O=C(C[C@@H]1CC=CCC[C@@H](Cc2ccc(F)cc2)C(=O)OC[C@H](Cc2c[nH]c3ccccc23)NC1=O)N[C@H](CO)Cc1ccccc1
O=C(O)Cn1cc2c(n1)CCCC2
COc1ccc(NC(=O)Nc2ccc3c(c2)C(=O)N([C@H](C)CO)C[C@@H](C)[C@H](CN(C)C(=O)NC2CCCCC2)OCCCC[C@H](C)O3)cc1
C[C@H](CO)N1C[C@H](C)[C@H](CN(C)C(=O)NC2CCCCC2)OCCCC[C@H](C)Oc2ccc(NS(=O)(=O)c3ccccc3)cc2C1=O
C[C@H]1CN([C@@H](C)CO)C(=O)Cc2cc(NS(=O)(=O)c3ccccc3)ccc2O[C@@H]1CN(C)Cc1ccc(Cl)c(Cl)c1
